From paper PMC6201879, “N-substituted phenylbenzamides of the niclosamide chemotype attenuate obesity related changes in high fat diet fed mice” (PLoS ONE, 2018)

Legend:
[1] = system: C57BL6 diet induce obesity (DIO) mice; assay: Automated quantitative histomorphometric steatosis scoring of liver sections; type: in vivo, mouse; conditions: day 6, sham = 1.0
Description: We then used an Aperio ScanScope slide scanner to scan H&E stained slides for image analysis and quantification of macrovesicular and microvesicular steatosis. […] This quantitative analysis can be used along-side comprehensive manual histological scoring to measure changes in the steatotic phenotype including changes in macrosteatosis and microsteatosis, lipid droplet size, zonal lipid distribution, and lipid droplet count.

[2] = system: C57BL6 diet induce obesity (DIO) mice; assay: Greasy (oily) coat phenotype scoring in HFD-fed mice; type: in vivo, mouse; conditions: treated animals
Description: In addition to changes in hepatic steatosis, we regularly observed that the coats of treated animals were drier, consistent with reduction in triglycerides, as has been observed in the DGAT1 mouse knockout with dry coat (Fig 8D and 8E). Animals were scored with regards to their oily coat phenotype with +++ representing an oily coat and ++ and + progressively drier phenotype.

[3] = system: C57BL6 diet induce obesity (DIO) mice; assay: Liver morphology and histological scoring of hepatic steatosis in HFD-fed mice; conditions: for mean percentage of steatosis / steatosis score: 10mg/kg I.P daily for 12 days; for steatosis score: grades ≤ 5%:0, 5–33%:1, 33–66%:2, 66–100%:3, sham 3.0

Compound	steatotic phenotype score, automated image analysis ([1]; 10 mg/kg IP)	steatotic phenotype score, automated image analysis ([1]; 25mg/kg IP)	coat appearance (oily coat phenotype) [2]	pattern of steatosis ([3]; 60%-fat fed DIO mice, 12 days of treatment)	mean percentage of steatosis ([3]; HFD-fed mice)	steatosis score ([3]; HFD-fed mice)	steatosis score, standard histological scoring, time-course ([3]; HFD-fed mice, 10 or 25mg/kg IP, day 0, 3, 6 and 9)
COC(=O)c1ccc(NC(=O)c2cc(C(C)(C)C)ccc2O)c(Cl)c1 [Compound 500199, Methyl 4-[(5-tert-butyl-2-hydroxybenzene)amido]-3-chlorobenzoate]	0.57 ± 0.19	0.13 ± 0.17	changes in coat appearance	almost completely cleared of steatosis	19%	1	time and dose dependent improvement in steatosis score
CC(C)(C)c1ccc(O)c(C(=O)Nc2ccc(C(=O)O)cc2Cl)c1 [Compound 500200, 4-[(5-tert-butyl-2-hydroxybenzene)amido]-3-chlorobenzoic acid]					28%	1.25	
O=C(Nc1ccc(Br)cc1Cl)c1cc(Cl)ccc1O [Compound 500832, N-(4-Bromo-2-chlorophenyl)-5-chloro-2-hydroxybenzamide]			changes in coat appearance			2.75	
CC(C)(C)c1ccc(O)c(C(=O)Nc2ccc(C(=O)O)cc2C(F)(F)F)c1 [Compound 500873, 4-[(5-tert-butyl-2-hydroxy)amido]-3-(trifluoromethyl)benzoic acid]					28%	1.25	
COC(=O)c1ccc(NC(=O)c2cccc(C(C)(C)C)c2O)c(Cl)c1 [Compound 600489, Methyl 4-(3-tert-butyl-2-hydroxybenzamido)-3-chlorobenzoate]					24%	1.25	
CC(C)(C)c1ccc(O)c(C(=O)Nc2cc(C(=O)O)ccc2Cl)c1 [Compound 600494, 3-{[2-Hydroxy-5-(tert-butyl)benzene]amido}-4chloro-benzoic acid]					25%	1.25	
COC(=O)c1ccc(NC(=O)c2cc(C(F)(F)F)ccc2O)c(Br)c1 [Compound 600653, Methyl 4-(2-hydroxy-5-[trifluoromethyl]benzamido)-3-bromobenzoate]						1.75	
O=C(Nc1ccc([N+](=O)[O-])cc1Cl)c1cc(Cl)ccc1O [Niclosamide]			changes in coat appearance		45%	2.0	
